The text below walks through data of the supplement of paper PMC11417369.

± gives the standard deviation of the averaged measurements. This is one part of the list.

The assay deals with PfAP2-LT AP2 domain (GST-tagged). As to the kind of experiment: gcPBM binding intensity (ln(normalized median fluorescence intensity)); higher = stronger DNA binding. The method in brief:
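Binding intensity is the highest Masliner-normalised natural-log median intensity over replicate spots in either probe orientation. To obtain it, GST-tagged P. falciparum DNA-binding domains made in E. coli were incubated for 1 h on an Agilent 4 × 180k array of primer-extended double-stranded 36-bp intergenic genomic probes plus negative controls. Detection used Alexa488 anti-GST antibody with scanning at 488 nm.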
For “TTTATTAATGGACACACACACACACCCAAAATAAAA [CACACA_site4294]”, the “gcPBM binding intensity (ln)” value turned out to be 10 ± 0.13.
For “TCATATAAAACATGCACACATATGTACTCTTATAAA [CACACA_site3748]” the value was 8.98 ± 0.3; for “TATATTTATATATGTTGTACTCTCCAATAATATTCC [XGTACX_site4438]”, 8.76 ± 0.52; for “ATTAAATGATCAAGGTGTACATTAACAAGAACTATA [XGTACX_site7022]”, 8.98 ± 0.49.
“TATATATTTATATTTACACACAGTTACTATGTAGAT [CACACA_site3292]”: the “gcPBM binding intensity (ln)” value amounted to 9.12 ± 0.34.
Regarding “TGAATAAAAAAACCTAGTACTTAAATAAGTATATTT [XGTACX_site7690]”, the “gcPBM binding intensity (ln)” value came to 8.59 ± 0.54.
For “TATATATATACATACGTACACACAAATATTAAAATA [CACACA_site1950]”, the “gcPBM binding intensity (ln)” value amounted to 9.03 ± 0.45.
Under “TAAAAAAAATAGAAACGTACATAAAAAATAAATAAT [XGTACX_site5796]” stands 9.04 ± 0.42; under “TATATGTGACATGAATGTACCCAAATTATATAAGAA [XGTACX_site3937]”, 8.77 ± 0.53.
Turning to “CATAGGAACATAAGTTGTACGCTATACATACAACAT [XGTACX_site1054]”, the “gcPBM binding intensity (ln)” value amounted to 9.05 ± 0.45.
With “TATTCTTACACGTTTGCACACTAAAATATATATATA [CACACA_site435]”, the “gcPBM binding intensity (ln)” value amounted to 9.01 ± 0.39.
In the case of “ATTTAATATATTTATTGTACATATAAAATAAAAGAA [XGTACX_site2413]”, the “gcPBM binding intensity (ln)” value was found to be 8.55 ± 0.35.
Take ATAAAATGTATATGAATGCACTTGAAGTTTTTTTTT: the “gcPBM binding intensity (ln)” value is 8.54 ± 0.52.
With “ATAAATCCATGGGTAGTGCGCATTTTTTTTTTTTTT [GTGCAC_site9732]”, the “gcPBM binding intensity (ln)” value was 9.17 ± 0.38.
As to “TTAGTGTATTAATTCTCACACACTAAGAAAAAAAAA [CACACA_site3878]”, the “gcPBM binding intensity (ln)” value is 8.72 ± 0.43.
Regarding “TCTCCTTGTTCCTTTTTTTTAAAAAAAAACATTAAA [CACACA_negctrl_site679]”, the “gcPBM binding intensity (ln)” value is 8.47 ± 0.52.
Under “TAATAATAATACCAGCGTACATTTTTCTTTCCTACG [XGTACX_site4056]” stands 8.97 ± 0.47; under “TTCCTTAATCAATATTGTACTTTTTATAAATTTAGT [XGTACX_site3678]”, 8.72 ± 0.42; under “TCTGTGTTTTTGGGTACACACAAATAGCTTGTATAT [CACACA_site4002]”, 9.14 ± 0.38.
In the case of “TGAAAATTAATAAAAAGTACATAGTCAGATTTGTGA [XGTACX_site2450]”, the “gcPBM binding intensity (ln)” value came out at 8.71 ± 0.49.
For “TATTTTTTCTTAAACACACACATATATATATATAAT [CACACA_site5567]” the value was 9.06 ± 0.38; for “CTAAACAAAAAATAATGTACACATACATAAAAAATA [XGTACX_site1808]”, 8.89 ± 0.49.
For the sequence “TATTGAAAAAATAAAAGTACAAACTCTTATAATATG [XGTACX_site8196]”, the “gcPBM binding intensity (ln)” value came to 8.55 ± 0.35.
As to “CCCGAACAAACAAATAAACACACAAAAAAAAATATA [CACACA_site8540]”, the “gcPBM binding intensity (ln)” value turned out to be 9.15 ± 0.47.
Consider “ATTATATATGTATGGTGTACTAAGAATATTTTTTTA [XGTACX_site1950]”, for which the “gcPBM binding intensity (ln)” value amounted to 8.55 ± 0.45.
